# Assay results from PubChem BioAssay AID686979 (National Center for Advancing Translational Sciences (NCATS), 2013).
# The whole screen tested about 420,000 compounds, of which about 50,000 (12%) were called active. The inconclusive results got no clear call from the source; some entries with a clear call stand among them for comparison. Calls follow the shape of the dose curve; as a rule, active = well fitted inhibition curve with a large enough effect; inconclusive = small, poorly fitted or top-dose-only effect; inactive = flat fitted curve, though single readings scatter. No potency is given beside an inconclusive call; the fits are too rough.
# Assay: qHTS for Inhibitors of human tyrosyl-DNA phosphodiesterase 1 (TDP1): qHTS in cells in presence of CPT; also: nearly all actives have a fitted effect of over 55% in size
# Conditions: chicken DT40 Tdp1-/-;hTDP1 cells + 20 nM CPT, ATP luminescence, 48 h; activity change, negative = growth inhibition: at 46.2 µM (top of the series) unless noted
# Method in brief: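 Chicken DT40 Tdp1-/- cells complemented with human TDP1, 400 cells/well, exposed to compounds plus 20 nM camptothecin for at least 48 h at 37 C; viability read as ATP content by CellTiter-Glo luminescence.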
# % is scaled to controls: 0 for no effect and ±100 for the full control effect; potency is read from the fitted curve at half-maximal effect; tags tell the direction and shape of the fitted curve.
Structure (SMILES),Potency,"activity change, negative = growth inhibition"
Cc1ccc(CN(Cc2ccco2)C(=O)COc2ccc(C)c(C)c2)cc1,active: 23.1 µM,
CC(C)(C)c1ccc(C(=O)NCC(c2ccc(Cl)cc2)N2CCOCC2)cc1 (stereo not given),active: 23.1 µM,
CCOc1ccc(NS(=O)(=O)c2ccc3c4c(cccc24)C(=O)N3)cc1,active: 16.4 µM,
CC(=O)c1ccccc1C(=O)NCC1Cc2cccc(-c3cccnc3)c2O1 (stereo not given),"inconclusive [inhibitor, single point]",
CCN(CC)CCCN=Cc1c(O)n(-c2c(C)cccc2C)c(=O)c2ccccc12,"inconclusive [inhibitor, single point]",
CCOc1ccccc1NC(=O)NC1(C(=O)NCC2CCCO2)CCCCC1 (stereo not given),,inactive: 2.35%
Cc1ccc(-c2nc(CS(=O)CC(=O)NCc3ccc4c(c3)OCO4)c(C)o2)cc1 (stereo not given),"inconclusive [inhibitor, single point]",
Cc1cc(-c2csc(NCc3ccccc3)n2)c(C)n1C,"inconclusive [inhibitor, single point]",
C[C@H]1CN([C@@H](C)CO)C(=O)c2cc(Br)cnc2O[C@@H]1CN(C)C(=O)NC1CCCCC1,,inactive: -14.5%
CC(C)CN(CC(C)C)c1ccc(/C=N/n2cnnc2)cc1[N+](=O)[O-],"inconclusive [inhibitor, single point]",
C[C@@H]1CN([C@H](C)CO)C(=O)c2cc(NS(=O)(=O)c3ccc(F)cc3)ccc2O[C@@H]1CN(C)Cc1ccc(Cl)c(Cl)c1,"inconclusive [inhibitor, single point]",
O=c1cc(N2CCCCC2)c(-c2ccccc2)nn1Cc1cccc(F)c1,"inconclusive [inhibitor, single point]",
Cc1ccc2nc3c(c(N)c2c1)CCN3C,"inconclusive [inhibitor, single point]",
Cc1ccc(-c2nnc(N(C)C(=O)C3CCCO3)s2)cn1 (stereo not given),,inconclusive: -30.2% [inhibitor]
CC(=O)c1cccc(NC(=O)CSc2nc3ccccc3nc2Cc2ccc(F)cc2)c1,"inconclusive [inhibitor, partial curve]",
O=C(c1ccccc1)N1CCN(c2cc(Cl)nc3cc(-c4cccc(Cl)c4)nn23)CC1,active: 16.4 µM,
CN(NC(=O)C(=O)NCc1ccco1)C(=O)Nc1ccc(Cl)cc1,"inconclusive [inhibitor, single point]",
Cc1nc2ccc(NS(=O)(=O)c3ccc(C)c(C)c3)cc2s1,active: 14.6 µM,
CCOc1cccc2cc(S(=O)(=O)c3ccccc3F)c(=O)oc12,,inactive: 10.7%
C#CCNC(=O)C[C@@H]1C[C@@]2(C(=O)OC)CCCCC=C2N(CCc2ccc(OC)c(OC)c2)C1=O,"inconclusive [inhibitor, single point]",
Cc1ccc2c(c1)c1c(n2CC(O)CN2CCCCCC2)CCCC1 (stereo not given),"inconclusive [inhibitor, single point]",
Cc1ccc(CO)cc1Nc1ncnc2onc(-c3ccc(F)cc3)c12,"inconclusive [inhibitor, single point]",
CN(C)[C@@H](CO)c1nnc([C@H](CCC(=O)O)NC(=O)C2CCNCC2)o1,,inactive: -3.8%

Structure (SMILES),Potency,"activity change, negative = growth inhibition"
CCCCCn1c(CN2CCCCC2CC)nc2c1c(=O)n(C)c(=O)n2C (stereo not given),"inconclusive [inhibitor, single point]",
CC(C)(C)C(=O)c1c(N)[nH]c(C(=O)c2ccccc2)c1-c1c(F)cccc1F,"inconclusive [inhibitor, single point]",
COc1ccc(C(=O)Nc2cc(C(=O)c3ccccc3)c(C)oc2=O)cc1,active: 13 µM,
CC(OC(=O)c1ccc(Cl)nc1)C(=O)Nc1ccc2c(c1)OCO2 (stereo not given),"inconclusive [inhibitor, single point]",
Cc1ccc(/C=C/c2ccc(=O)n(Cc3ccc(Cl)cc3Cl)n2)cc1,"inconclusive [inhibitor, single point]",
CN1C(=O)C(N=Nc2ccc([N+](=O)[O-])cc2)SC1=S (stereo not given),active: 7.31 µM,
CN1C(=O)[C@H]2[C@@H](c3ccc(C(F)(F)F)cc3)N[C@]3(CCCN(Cc4cccn4C)C3=O)[C@H]2C1=O,active: 23.1 µM,
Cc1cc(C(=O)N2CCC2(C)C(=O)Nc2ccc3[nH]ncc3c2)nn1C (stereo not given),,inconclusive: -35.8% [inhibitor]
COc1ccc2c(c1)NC(C)(C)C=C2C,"inconclusive [inhibitor, partial curve]",
Cc1ccc(CNC(=O)c2ccc3nc(SCc4ccc(F)cc4)[nH]c3c2)cc1,active: 14.6 µM,
O=C(CCc1ccc(O)c(O)c1)NNC(=S)NCCc1ccccc1,"inconclusive [inhibitor, partial curve]",
CC(=O)n1cc([C@H]2C=C(C(N)=O)O[C@@H](OCc3ccc(CO)cc3)C2)c2ccccc21,"inconclusive [inhibitor, single point]",
Cc1cccc(NC(=O)CN(C)C(C)C(=O)Nc2ccc(S(=O)(=O)N3CCCC3)cc2)c1C (stereo not given),"inconclusive [inhibitor, single point]",
COc1cccc(-c2nc(SCC(=O)NC3CCCC3)c(-c3ccc(C)cc3)[nH]2)c1,"inconclusive [inhibitor, single point]",
CCS(=O)(=O)N1CCC(C(=O)N2CCN(Cc3ccccc3)CC2)CC1,,inactive: -1.22%
CCCOc1cccc(C(=O)Nc2cc(-c3ccccc3)no2)c1,active: 11.6 µM,
CC(=O)O[C@](C)(CCC=C(C)C)C1CC=C(C)CC1 (stereo not given in full),,inactive: -14%
CC(NC(=O)CNC(=O)Cc1cccc2ccccc12)c1ccc(S(N)(=O)=O)cc1 (stereo not given),,inactive: 33.9%
Cc1ccsc1C(C(=O)NCc1ccccc1)N(C(=O)c1csnn1)c1ccccc1 (stereo not given),,inactive: -13.5%
c1ccc(CCNc2c3c(nc4ncnn24)CCC3)cc1,"inconclusive [inhibitor, single point]",
Cc1cc2c(c(-c3cnccn3)c1)OC(CNC(=O)c1cc(Cl)ccc1F)C2 (stereo not given),,inactive: 14.2%
O=C(CN1CCOCC1)Nc1ncccn1,,inactive: 8.74%
